The least precise scores are not listed. The source holds two more conditions with little spread; they are left out. Read del as a deletion of the residues named and ins as an insertion between two positions. For part of these data: How much ogerin was present is not stated here.
B1: GPR68, Q15743 (parent)
chain: MGNITADNSSMSCTIDHTIHQTLAPVVYVTVLVVGFPANCLSLYFGYLQIKARNELGVYLCNLTVADLFYICSLPFWLQYVLQHDNWSHGDLSCQVCGILLYENIYISVGFLCCISVDRYLAVAHPFRFHQFRTLKAAVGVSVVIWAKELLTSIYFLMHEEVIEDENQHRVCFEHYPIQAWQRAINYYRFLVGFLFPICLLLASYQGILRAVRRSHGTQKSRKDQIQRLVLSTVVIFLACFLPYHVLLLVRSVWEASCDFAKGVFNAYHFSLLLTSFNCVADPVLYCFVSETTHRDLARLRGACLAFLTCSRTGRAREAYPLGAPEASGKSGAQGEEPELLTKLHPAFQTPNSPGSGGFPTGRLA

What was measured:
[1] = variants of: B1; test: cAMP reporter score (Enrich2 score, wild type = 0); higher = more signal; HEK293T, FACS bins
[2] = variants of: B1; test: surface expression score (Enrich2 score, wild type = 0); higher = more signal; HEK293T, FACS bins

| Variant | cAMP reporter score ([1]; pH 5.5) | cAMP reporter score ([1]; pH 6) | cAMP reporter score ([1]; pH 6, modulator: ogerin) | cAMP reporter score ([1]; pH 6.5, modulator: ogerin) | surface expression score [2] |
| --- | --- | --- | --- | --- | --- |
| G46A | 0.609 | 0.846 | 0.216 | -0.033 | 1.41 |
| G46C | -0.324 | -2.08 | -0.883 | -0.813 | -0.484 |
| G46D | -0.301 | -1.63 | -1.87 | -0.784 | -2.41 |
| G46E | -1.41 | -1.04 | -0.975 | -1.05 | -2.85 |
| G46F | -1.04 | -0.47 | -1.67 | -0.511 | -2.24 |
| G46H | 0.209 | 4.2 | 1.23 | – | -2.39 |
| G46I | -0.085 | -0.806 | -1.82 | -0.72 | -1.69 |
| G46K | -0.918 | – | -2.46 | -1.94 | -2.12 |
| G46L | -1.56 | -0.36 | -1.08 | -0.854 | -2.11 |
| G46N | 0.098 | – | 0.556 | 0.655 | – |
| G46P | -1.49 | -1.35 | -2.15 | -1.2 | -2.38 |
| G46Q | -0.456 | -0.287 | -1.12 | -0.631 | -1.45 |
| G46R | -2.84 | -1.53 | -1.62 | -1.64 | -2.56 |
| G46S | -0.48 | 1.18 | -0.422 | -0.704 | -0.406 |
| G46T | 0.738 | 0.006 | 0.666 | -0.611 | -2.1 |
| G46V | -0.834 | -0.291 | – | -1.31 | -2.36 |

| Variant | cAMP reporter score ([1]; pH 5.5) | cAMP reporter score ([1]; pH 6) | cAMP reporter score ([1]; pH 6, modulator: ogerin) | cAMP reporter score ([1]; pH 6.5, modulator: ogerin) | surface expression score [2] |
| --- | --- | --- | --- | --- | --- |
| G46W | -1.2 | -1 | -1.49 | -1.32 | -1.77 |
| G46Y | -0.164 | -0.834 | -0.368 | -1.16 | -1.33 |
| G46_Y47del | -0.785 | -1.04 | -1.45 | -1.35 | -2.61 |
| Y47_L48del | -1.34 | -1.85 | -1.22 | -1.55 | – |
| Y47_Q49del | -1.31 | -1.02 | – | -1.5 | -2.88 |
| L48A | -0.459 | -1.1 | -1.2 | -1.43 | -2.18 |
| L48C | -0.123 | – | 0.055 | -0.145 | -0.693 |
| L48D | -1.37 | -0.728 | -1.14 | -0.86 | -2.48 |
| L48E | -0.167 | -0.171 | -0.916 | -0.831 | -1.51 |
| L48F | -1.12 | – | -0.175 | -1.16 | -1.87 |
| L48G | -0.342 | – | -0.602 | -1.17 | -0.857 |
| L48H | -0.715 | -1.16 | -1.21 | – | -0.974 |
| L48I | -0.591 | -0.556 | – | -1.02 | -0.359 |
| L48K | 0.727 | – | 0.892 | 0.066 | 0.102 |
| L48M | -0.15 | -0.531 | 0.204 | 1.43 | 0.058 |
| L48N | 0.171 | -0.821 | -0.051 | -0.164 | -1.28 |

From the GPR68 mutational scans of Howard et al. (2025)
